Experimental data reported in PubChem BioAssay (NCATS).
Inconclusive means that the source gave no clear call. Such entries were picked first, then a sample of the others. Where the call is inconclusive, the potency comes from a doubtful curve fit. Activity calls are given as the source filed them. Unless noted, calls follow the shape of the dose curve; as a rule, active = well fitted inhibition curve with a large enough effect; inconclusive = small, poorly fitted or top-dose-only effect; inactive = no such curve, though single readings can be large or run the other way.

Assays:
[1] = target: Aldehyde dehydrogenase, mitochondrial (Homo sapiens) (UniProt P05091); test: qHTS for Inhibitors of the Aldehyde Dehydrogenase Family (ALDH2) Confirmatory screens (AID 2061303; active = well fitted inhibition curve with a large enough effect; inconclusive = small, poorly fitted or top-dose-only effect; inactive = no such curve, though single readings can be large or run the other way; title and protocol of this record describe different tests; also: nearly all actives have a fitted effect of over 45% in size); conditions: ALDH inhibition qHTS; activity change, negative = inhibition: at 45.4 µM (top of the series)
[2] = qHTS for Inhibitors of the Aldehyde Dehydrogenase Family (ALDH1A2, ALDH1A3, ALDH2, ALDH3A1) (AID 2061307); conditions: ALDH inhibition qHTS; activity change, negative = inhibition: at 50.3 µM (top of the series) unless noted; also: nearly all actives have a fitted effect of over 50% in size; as to potency: test system not described further here
[3] = target: Retinaldehyde dehydrogenase 3 (Homo sapiens) (UniProt P47895); test: qHTS for Inhibitors of the Aldehyde Dehydrogenase Family (ALDH1A3) Confirmatory screens (AID 2061311); conditions: ALDH inhibition qHTS; activity change, negative = inhibition: at 46 µM (top of the series); series mostly up to 46 µM; also: nearly all actives have a fitted effect of over 60% in size
[4] = target: Retinal dehydrogenase 2 (Homo sapiens) (UniProt O94788); test: qHTS for Inhibitors of the Aldehyde Dehydrogenase Family (ALDH1A2) Confirmation screens (AID 2061314); conditions: ALDH1A2 enzyme inhibition qHTS confirmation; series mostly up to 45.9 µM; also: nearly all actives have a fitted effect of over 65% in size
[5] = target: Retinaldehyde dehydrogenase 3 (Homo sapiens) (UniProt P47895); test: qHTS for Inhibitors of the Aldehyde Dehydrogenase Family (ALDH1A3) Primary screen (AID 2061315); conditions: ALDH inhibition qHTS; activity change, negative = inhibition: at 56 µM (top of the series) unless noted
[6] = target: Aldehyde dehydrogenase 1A1 (Homo sapiens) (UniProt P00352); test: qHTS for Inhibitors of the Aldehyde Dehydrogenase Family (ALDH1A1) Confirmatory screens (AID 2061316); conditions: ALDH inhibition qHTS; activity change, negative = inhibition: at 47.3 µM (top of the series); series mostly up to 47.3 µM; also: nearly all actives have a fitted effect of over 65% in size
Potency is read from the fitted curve at half-maximal effect; tags tell the direction and shape of the fitted curve.

| SMILES | Potency [1] | Potency [2] | Potency [3] | Potency [4] | Potency [5] | Potency [6] |
| --- | --- | --- | --- | --- | --- | --- |
| CC(=O)Nc1ncc(S(=O)(=O)Nc2cnccc2C(=O)Nc2nc(-c3ccccc3)cs2)s1 | inconclusive: 15.9 µM [inhibitor, partial curve] | inconclusive: 11.3 µM [inhibitor, partial curve] | inconclusive: 1.01 µM [inhibitor, full curve, poor fit] | active: 10.1 µM |  |  |
| Cc1cc(C)c2c(N)c(C(=O)NCc3ccc(Cl)cc3)sc2n1 | inconclusive: 28.3 µM [inhibitor, partial curve] | active: 1.12 µM | inconclusive: 11.3 µM [inhibitor, partial curve] | inconclusive: 17.9 µM [inhibitor, partial curve] |  |  |
| COc1ccc(C2Nc3ccccc3C(=O)N2C2CCCC2)cc1COc1ccc(NC(C)=O)cc1 (stereo unspecified) | inconclusive: 35.5 µM [inhibitor, partial curve, poor fit] | active: 1.59 µM | inconclusive: 11.2 µM [inhibitor, full curve] | inconclusive: 10.1 µM [inhibitor, partial curve] |  |  |
| O=C(O)CN1C(=O)N/C(=C\c2cccn2-c2ccc(P(=O)(O)O)cc2)C1=O | inactive | inconclusive: 20.1 µM [inhibitor, partial curve] | inactive | inconclusive: 35.7 µM [inhibitor, single point] |  |  |
| Cc1ccc(CNc2ccc(N3CCCCC3)cc2)cc1 | inconclusive: 12.7 µM [inhibitor, partial curve] | active: 11.3 µM | active: 20.1 µM | active: 28.3 µM | inconclusive: 25.1 µM [inhibitor, partial curve] | inconclusive: 11.3 µM [inhibitor, partial curve] |
| CCC(=O)NC(c1cc(Cl)c2ccccc2c1O)C(C)C (stereo unspecified) | inconclusive: 11.3 µM [inhibitor, partial curve] | inconclusive: 2.01 µM [inhibitor, full curve] | active: 12.7 µM | active: 28.3 µM | inconclusive: 5.01 µM [inhibitor, partial curve] | inconclusive: 10.1 µM [inhibitor, partial curve] |
| CN1CCN(C2=Nc3ccccc3Nc3ccc(O)cc32)CC1 | inactive | inactive | inconclusive: 22.5 µM [inhibitor, partial curve] | inactive | inconclusive: 12.6 µM [inhibitor, partial curve] |  |
| Cc1cc(N=Nc2ccc(S(=O)(=O)Nc3ccccn3)cc2)c(N)cc1O | inconclusive: 12.7 µM [inhibitor, partial curve] | inconclusive: 11.3 µM [inhibitor, partial curve] | active: 11.3 µM | inconclusive: 28.3 µM [inhibitor, partial curve] | inconclusive: 22.4 µM [inhibitor, partial curve, poor fit] |  |
| COc1ccc(CNc2ccc(N3CCN(C(C)=O)CC3)cc2)cc1OC | inconclusive: 15.9 µM [inhibitor, partial curve] | inconclusive: 8.96 µM [inhibitor, partial curve] | active: 12.7 µM | active: 12.7 µM | inconclusive: 6.31 µM [inhibitor, partial curve] | inconclusive: 22.5 µM [inhibitor, partial curve] |
| CCN1c2cc(C(=O)Nc3ccc(C#N)cc3)ccc2C(=O)N2CCCCCC21 (stereo unspecified) | inactive | inconclusive: 8.91 µM [inhibitor, full curve, poor fit] | inconclusive: 22.9 µM [inhibitor, partial curve] | inconclusive: 18.2 µM [inhibitor, partial curve] |  |  |
| Cc1csc(CN(C)c2ncnc3ccc(-c4ccc5c(c4)OCO5)cc23)n1 | inconclusive: 35.5 µM [inhibitor, partial curve, poor fit] | active: 0.201 µM | active: 25.1 µM | inconclusive: 17.8 µM [inhibitor, partial curve, poor fit] |  |  |
| Cc1ccc(CNc2ccccc2C(=O)Nc2nc(-c3ccccc3)cs2)cc1 | inconclusive: 12.7 µM [inhibitor, partial curve, poor fit] | inconclusive: 15.2 µM [inhibitor, partial curve, poor fit] | inconclusive: 12.7 µM [inhibitor, partial curve] | inconclusive: 22.5 µM [inhibitor, partial curve] | inactive |  |
| OCc1ccc(-c2ccc3ncnc(NCCc4cnc[nH]4)c3c2)o1 | inconclusive: 28.3 µM [inhibitor, partial curve, poor fit] | inactive | inconclusive: 22.5 µM [inhibitor, single point] | inconclusive: 12.7 µM [inhibitor, partial curve] |  |  |
| O=C(O)c1ccccc1OC1=NS(=O)(=O)c2ccccc21 | inactive | inactive | inconclusive: 14.2 µM [inhibitor, partial curve, poor fit] | inactive |  |  |
| Cc1cc(C)nc(NC(=S)N2CCN(c3cc4ccccc4cn3)CC2)c1 | inconclusive: 4.49 µM [inhibitor, full curve] | inactive | active: 6.34 µM | active: 15.9 µM | inconclusive: 0.199 µM [inhibitor, full curve, poor fit] |  |
| COc1cc(C[C@H]2COC(=O)[C@@H]2Cc2ccc(O)c(OC)c2)ccc1O | inconclusive: 7.83 µM [inhibitor, partial curve, poor fit] | inconclusive: 13.9 µM [inhibitor, partial curve] | inconclusive: 19.7 µM [inhibitor, partial curve] | inconclusive: 4.94 µM [inhibitor, full curve] | inconclusive: 10 µM [inhibitor, partial curve] | inconclusive: 6.97 µM [inhibitor, partial curve] |
| CC(C)(C)OC(=O)N1CCN(c2ccc(NCc3ccc(-c4ccc(C#N)cc4)nc3)cc2)CC1 | inconclusive: 12.7 µM [inhibitor, partial curve] | inconclusive: 17.9 µM [inhibitor, partial curve, poor fit] | inconclusive: 14.2 µM [inhibitor, partial curve] | inactive |  |  |
| CC(=O)N1CCN(c2ccc(N)cc2)CC1 | inconclusive: 14.2 µM [inhibitor, partial curve, poor fit] | inconclusive: 12.7 µM [inhibitor, partial curve] | inconclusive: 22.5 µM [inhibitor, single point] | inconclusive: 20.1 µM [inhibitor, partial curve] | inconclusive: 7.94 µM [inhibitor, partial curve] |  |
| O=c1c2ccccc2nc2sc(Nc3ccc4c(c3)OCO4)nn12 | inconclusive: 12.7 µM [inhibitor, partial curve, poor fit] | inconclusive: 11.3 µM [inhibitor, partial curve] | inconclusive: 22.5 µM [inhibitor, partial curve] | inconclusive: 14.2 µM [inhibitor, partial curve] |  |  |
| COc1ccc(C2Nc3ccccc3C(=O)N2Cc2ccccc2OC)cc1COc1ccc(NC(C)=O)cc1 (stereo unspecified) | inconclusive: 15.8 µM [inhibitor, partial curve, poor fit] | active: 2.25 µM | inconclusive: 7.08 µM [inhibitor, full curve, poor fit] | inconclusive: 11.3 µM [inhibitor, partial curve] |  |  |
| CN(C)c1cccc(N2CCN(c3nn4c(=O)c5ccccc5nc4s3)CC2)c1 | inconclusive: 7.98 µM [inhibitor, partial curve] | inconclusive: 3.55 µM [inhibitor, full curve] | inconclusive: 25.2 µM [inhibitor, partial curve] | inconclusive: 3.57 µM [inhibitor, full curve] |  |  |
| CC(NC(=O)CC(=O)O)c1nc2ccccc2c(=O)[nH]1 (stereo unspecified) | inconclusive: 11.3 µM [inhibitor, partial curve] | inactive | inconclusive: 25.2 µM [inhibitor, partial curve] | inconclusive: 7.98 µM [inhibitor, partial curve] | inconclusive: 39.8 µM [inhibitor, partial curve, poor fit] |  |
| Oc1cc(NCCc2cccnc2)cc2cccnc12 | inactive | inconclusive: 0.634 µM [inhibitor, full curve] | active: 0.4 µM | inactive | inconclusive: 2.24 µM [inhibitor, full curve, poor fit] | inconclusive: 1.27 µM [inhibitor, full curve] |
| O=C(OCC#CCSc1nnc(-c2cccc3ccccc23)o1)c1ccncc1 | inconclusive: 0.398 µM [inhibitor, full curve, poor fit] | inactive | active: 2.01 µM | inconclusive: 0.501 µM [inhibitor, full curve, poor fit] |  |  |
| Cc1cc(C)nc(NC(=S)N2CCN(c3cc(Cl)cc(Cl)n3)CC2)c1 | inconclusive: 17.9 µM [inhibitor, partial curve] | inconclusive: 20 µM [inhibitor, full curve, poor fit] | inconclusive: 7.94 µM [inhibitor, full curve, poor fit] | inconclusive: 35.5 µM [inhibitor, partial curve] |  |  |
